Several values for one entry are separate records, joined by “and”; a condition that tells them apart may be missing. Equal entries are not always repeated. Among all 270,000 compounds or so, about 5,800 (2.1%) were called active. Inconclusive results, whose numbers are uncertain, are shown with a selection of clear calls. The call rests on the fitted dose curve; in most records, active means well fitted inhibition curve with a large enough effect; inconclusive means small, poorly fitted or top-dose-only effect; inactive means flat fitted curve, though single readings scatter. A potency beside an inconclusive call is a rough fit, not a confirmed value.
Each compound was assayed against Microtubule-associated protein tau (Homo sapiens) (UniProt P10636) (assay: qHTS for Inhibitors of Tau Fibril Formation, Thioflavin T Binding). Details: recombinant tau K18 P301L (four-repeat tau fragment), heparin-induced fibrillization, ThT fluorescence; series mostly up to 57.4 µM.
UniProt P10636, sequence (P10636 whole entry, looked up, the tested form may be a part): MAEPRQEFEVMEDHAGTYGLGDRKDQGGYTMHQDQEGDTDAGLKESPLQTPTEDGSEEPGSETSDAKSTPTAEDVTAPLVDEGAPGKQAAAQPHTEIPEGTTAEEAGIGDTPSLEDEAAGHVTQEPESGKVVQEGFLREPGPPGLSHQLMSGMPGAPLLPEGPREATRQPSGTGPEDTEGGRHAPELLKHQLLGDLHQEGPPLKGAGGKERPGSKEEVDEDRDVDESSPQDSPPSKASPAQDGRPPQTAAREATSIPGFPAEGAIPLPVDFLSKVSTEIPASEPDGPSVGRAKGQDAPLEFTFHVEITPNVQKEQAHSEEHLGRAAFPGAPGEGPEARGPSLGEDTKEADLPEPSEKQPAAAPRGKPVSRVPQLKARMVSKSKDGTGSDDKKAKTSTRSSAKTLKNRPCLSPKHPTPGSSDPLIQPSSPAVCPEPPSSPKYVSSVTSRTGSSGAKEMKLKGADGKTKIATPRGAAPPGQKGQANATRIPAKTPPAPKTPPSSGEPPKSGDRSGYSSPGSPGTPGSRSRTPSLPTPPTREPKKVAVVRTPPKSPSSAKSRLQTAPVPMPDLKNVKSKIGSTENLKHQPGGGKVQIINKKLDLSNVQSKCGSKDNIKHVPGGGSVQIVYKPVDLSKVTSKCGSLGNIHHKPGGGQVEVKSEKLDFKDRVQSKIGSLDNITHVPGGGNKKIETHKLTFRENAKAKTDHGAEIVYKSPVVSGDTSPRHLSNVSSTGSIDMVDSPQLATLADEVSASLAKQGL
Procedure, shortened: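 K18 P301L tau (15 uM + 0.24 uM Alexa 594-tagged), heparin 20 uM, NaOAc pH 7, 6 h 37 C; ThT 30 uM, 1 h RT, ex 450/em 510 nm.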
Further: nearly all actives have a fitted effect of over 55% in size.
Potency means the concentration at half of the fitted maximal effect; tags describe the fitted curve by direction and shape.

| SMILES | Potency |
| --- | --- |
| COc1ccc(NS(=O)(=O)c2ccc3[nH]c4c(c3c2)CCCC4)c(OC)c1 | inactive |
| O=C(CSCc1ccc(F)cc1)N1CCN(c2ccccc2)CC1 | inconclusive: 11.2 µM [inhibitor, partial curve] and inconclusive: 3.55 µM [inhibitor, full curve] |
| CN(C)c1ccc(C(CNS(=O)(=O)c2cc(F)ccc2F)N2CCOCC2)cc1 (stereo not drawn) | inconclusive: 15.8 µM [inhibitor, partial curve] |
| O=C1c2ccsc2SCCN1Cc1ccc(Cl)cc1Cl | inconclusive: 17.8 µM [inhibitor, partial curve] |
| COC(=O)c1c(C(=O)OC)c(-c2ccc(Cl)c(Cl)c2)n2c1CCC2 | inconclusive: 35.5 µM [inhibitor, partial curve] |
| CNC1CC(N)[C@H](O)[C@@H](O[C@@H]2OC(CO)C3OC4(OC(C(N)CO)C(O)C(O)C4O)O[C@@H]3[C@H]2O)C1O (stereo partly drawn) | inactive |
| c1ccc2oc(CCc3nc4ccccc4o3)nc2c1 | inconclusive: 2 µM [inhibitor, full curve] |
| Cc1ccc(NC(=O)CSc2ncc3ccccn23)cc1 | inconclusive: 39.8 µM [inhibitor, single point] |
| COc1cc(CNCc2ccccc2)cc(Cl)c1OC | inactive |
| CC(=O)c1ccc(N2CCN(c3ccc(S(=O)(=O)NCCCN(C)C)cc3[N+](=O)[O-])CC2)cc1 | active: 10 µM |
| C(=N\N1CCN(Cc2ccccc2)CC1)/c1cccnc1 | inactive |
| Cc1ccc(-n2nc3cc(Cl)c(NC(=O)c4ccco4)cc3n2)cc1 | inconclusive: 3.55 µM [inhibitor, full curve] |
| CN(CCc1ccccn1)C(=S)NC(=O)c1ccco1 | inactive |
| COc1ccc(NC(=O)CC2C(=O)N(c3ccccc3)C(=O)N2Cc2cccnc2)cc1 (stereo not drawn) | inactive |
| Cc1cc(Nc2nnnn2-c2ccccc2)n(-c2ccc(Cl)cc2)n1 | inconclusive: 31.6 µM [inhibitor, single point] |
| Cc1c(CCC(=O)O)c(=O)oc2cc3occ(-c4ccccc4)c3cc12 | inconclusive: 28.2 µM [inhibitor, single point] |
| O=C(CCc1n[nH]c(=O)[nH]c1=O)N/N=C/c1ccco1 | inactive |
| COCCn1c(SCCCc2ccccc2)nc2c1c(=O)[nH]c(=O)n2C | inactive |
| Cc1ccc(C2(C)CC(C)(C)N(C(=O)CSc3nnc(C)s3)c3ccccc32)cc1 (stereo not drawn) | inconclusive: 39.8 µM [inhibitor, single point] |
| CCOc1ccc2nc(NS(=O)(=O)Cc3ccccc3)sc2c1 | inconclusive: 25.1 µM [inhibitor, partial curve] |
| Cc1ccc(CNC(=O)CCC2CCCN(Cc3cccc4cccnc34)C2)o1 (stereo not drawn) | inconclusive: 31.6 µM [inhibitor, partial curve] |
| Cc1ccc(Cl)cc1N1CCN(C(=O)CCSCc2ccccc2F)CC1 | inconclusive: 10 µM [inhibitor, partial curve, poor fit] |
| O=[N+]([O-])c1nn(-c2ccc3c(c2)OCCO3)n(O)c1=NC1CCCCC1 | inconclusive: 22.4 µM [inhibitor, partial curve] |

| SMILES | Potency |
| --- | --- |
| CN(O)/C=C/C(=O)c1ccc(Br)cc1 | inconclusive: 31.6 µM [inhibitor, single point] |
| CCc1ccc(NC(=O)CC(c2ccc(C)cc2)N2Cc3ccccc3C2=O)cc1 (stereo not drawn) | inactive |
| CC(C)(C)n1nnnc1C(c1ccc(Cl)cc1)N(Cc1cccnc1)Cc1ccco1 (stereo not drawn) | inconclusive: 17.8 µM [inhibitor, partial curve] |
| OC(CNCc1ccccc1F)(c1ccc(F)cc1)c1ccc(F)cc1 | inactive |
| Cc1ccc(-n2nc(-c3ccc(F)cc3)c3cnc4cc5c(cc4c32)OCO5)cc1C | inactive |
| CO[C@H]1COC(=O)C/C=C\[C@H](C)[C@@H](OC)COC(=O)C/C=C\[C@@H]1C | inconclusive: 7.08 µM [inhibitor, single point] |
| COc1cc(OC)cc(C(=O)Nc2cccnc2)c1 | inactive |
| Cc1cc(N2CCN(C)CC2)nc2ccc(NC(=O)Nc3ccccc3)cc12 | inconclusive: 15.8 µM [inhibitor, partial curve] |
| COc1ccccc1-c1nc(C#N)c(N2CCN(c3ccccc3)CC2)o1 | inconclusive: 11.2 µM [inhibitor, partial curve, poor fit] |
| Cc1ccc(/C=N/Nc2cc(C)nc(NCc3ccccc3)n2)cc1 | inconclusive: 15.8 µM [inhibitor, partial curve] |
| CC(=O)Nc1c(C(=O)Nc2cccc(C)c2)nnn1-c1ccc(C)cc1 | inconclusive: 2.51 µM [inhibitor, full curve] |
| O=C(CCCc1nc(-c2ccco2)no1)Nc1ccccc1[N+](=O)[O-] | inactive |
| COc1cc(/C=N/NC(=O)c2sc(N)c(C#N)c2C)cc(Br)c1O | active: 4.47 µM |
| COc1ccc(-c2nc(CS(=O)CC(=O)NCCc3ccccc3)c(C)o2)cc1OC (stereo not drawn) | inconclusive: 31.6 µM [inhibitor, single point] |
| Cc1c(C(=O)OCC(=O)Nc2cccc(S(N)(=O)=O)c2)oc2c1ccc1ccccc12 | inconclusive: 12.6 µM [inhibitor, partial curve] |
| S=c1[nH]nc(-c2cc(-c3ccccc3)n[nH]2)n1/N=C/c1cccs1 | inconclusive: 31.6 µM [inhibitor, single point] |
| COc1ccc(C(=O)Nc2ccc3nc4c(c(Nc5ccc(OC)c(OC)c5)c3c2)CCCC4)c(OC)c1 | inconclusive: 12.6 µM [inhibitor, partial curve] |
| CCOC(=O)c1cc2c(=O)n3ccccc3nc2n(CC(C)C)c1=NC(=O)COc1ccc(Cl)cc1 | inactive |
| Cc1sc(NC(=O)c2ccco2)c(C(c2cccnc2)N2CCN(c3ccc(F)cc3)CC2)c1C (stereo not drawn) | inconclusive: 28.2 µM [inhibitor, single point] |
| O=C(Nc1cccc(C(=O)O)c1)/C(=C\c1ccccc1)NC(=O)c1ccccc1Cl | inconclusive: 15.8 µM [inhibitor, partial curve] |
| CCN(CC)c1ccc(CN(C(=O)c2ccco2)C2CCS(=O)(=O)C2)cc1 (stereo not drawn) | inactive |
| CCC(=O)Nc1ccc(CC)cc1-c1nc2ccccc2n(CC(=O)Nc2cccc(OC)c2)c1=O | inconclusive: 0.0251 µM [activator, full curve, poor fit] |
| CSc1nn(CCc2ccncc2)c(=S)s1 | inactive |

| SMILES | Potency |
| --- | --- |
| Cc1ccc(CCNC(=O)c2sc3ncccc3c2-n2c(C)ccc2C)cc1 | inconclusive: 22.4 µM [inhibitor, single point] |
| COc1ccc(-c2nn(C)c(=O)c3ccccc23)cc1NC(=O)COc1ccccc1 | inconclusive: 17.8 µM [inhibitor, single point] |
| CCCC(=O)N1N=C(c2ccccc2)CC1c1cn(C)c2ccccc12 (stereo not drawn) | inconclusive: 25.1 µM [inhibitor, single point] |
| Nc1[nH]n2c(=O)cc(-c3ccccc3)nc2c1N=Nc1ccccc1 | active: 5.01 µM |
| CCOC(=O)c1cc(-c2ccccc2)nc2nc(N3CCCCC3)sc12 | inconclusive: 17.8 µM [inhibitor, partial curve] |
| CCN(CC)CCn1c(=O)n(-c2ccc(Cl)cc2)c(=O)c2c3c(sc21)CN(C)CC3 | inconclusive: 28.2 µM [inhibitor, partial curve] |
| COc1ccc(-c2cn3nc(N4CCC(C(=O)Nc5ccccc5OC)CC4)sc3n2)cc1 | inconclusive: 3.16 µM [inhibitor, full curve, poor fit] |
| CCOC(=O)c1c(NC(=O)COC)sc2c1CCCC2 | inconclusive: 14.1 µM [inhibitor, partial curve, poor fit] |
| COc1ccc(OC)c(N(CC(=O)N2CCN(c3cc(Cl)ccc3C)CC2)S(C)(=O)=O)c1 | inconclusive: 22.4 µM [inhibitor, single point] |
| CCCOc1ccc2oc(=O)c3c(c2c1)CCCN3C(=O)CN1CCN(C(=O)c2ccco2)CC1 | inconclusive: 15.8 µM [inhibitor, partial curve] |
| Cn1c(=O)c([N+](=O)[O-])c(Cl)c2ccccc21 | inconclusive: 11.2 µM [inhibitor, partial curve] |
| Cn1cccc1C(C#N)c1ncc(C(F)(F)F)cc1Cl (stereo not drawn) | inconclusive: 44.7 µM [inhibitor, single point] |
| Cn1c(=N)n(CC(=O)C(C)(C)C)c2ccccc21 | inactive |
| CCCCNC(=O)/C(C#N)=c1\s/c(=C\c2ccccc2OC(F)F)c(=O)n1CCCOC | inactive |
| COc1ccc(Cl)cc1NC(=O)NCCn1c(=O)oc2ccc(C)cc21 | inconclusive: 17.8 µM [inhibitor, partial curve, poor fit] |
| Cc1ccc(C)c(N2CCN(C(=O)c3cnn(C(C)(C)C)c3C3CCN(C(=O)OC(C)(C)C)CC3)CC2)c1 | inconclusive: 31.6 µM [inhibitor, single point] |
| COc1ccc(NC(=O)C/C(C)=N/NC(=O)c2ccncc2)c([N+](=O)[O-])c1 | inconclusive: 12.6 µM [inhibitor, partial curve] |
| CNC(=O)CC12CC3CC(CC(C3)C1)C2 | inactive |
| Cc1ccc(Cl)cc1-n1nnc(-c2nsc(NC(=O)c3ccccc3Cl)n2)c1C | inactive |
| COc1cc(C2CC(=O)N3CN(Cc4ccco4)CSC3=C2C#N)ccc1OCc1ccccc1 (stereo not drawn) | active: 20 µM |
| O=C(O)CC/C(=N\Nc1ccc(S(=O)(=O)N2CCOCC2)cc1[N+](=O)[O-])c1cccs1 | active: 11.2 µM |
| CC(C)Cn1c2c(c(O)c(C(=O)Nc3ccc(F)cc3)c1=O)CCCC2 | inactive |

From PubChem BioAssay AID1460 (National Center for Advancing Translational Sciences (NCATS), 2008)
